Reference: paper PMC5668364, “Structure and functional dynamics of the mitochondrial Fe/S cluster synthesis complex” (Nature Communications, 2017)

Molecular target: the molecule itself
Test: SEC-MALS; human (NIA)2 complex on a Wyatt SEC WTC 030S5 column with miniDAWN TREOS and Optilab tREX

B1: human NFS1 […] (Δ[…]) with N-terminal His6-tag (enzyme)
chain: not shown
modifications: PLP covalently bound to Lys258 as an internal aldimine
notes: human cysteine desulfurase NFS1, […] (Δ[…]), plasmid pZM2; forms a dimer in the (NIA)2 crystal; also called His-tagged human NFS1; cysteine desulfurase NFS1; source: E. coli One Shot BL21 Star (DE3), co-expressed with ISD11, purified (Ni-NTA)
- stoichiometry N: 2
